# Data: PubChem BioAssay AID1745853 (National Center for Advancing Translational Sciences (NCATS), 2022)
# The list shows a part of the results. The main result of the screen is listed elsewhere. These columns were measured beside it and carry no call.
# Tests used:
# Assay in all cases: Primary Screen for Target Class Profiling of Small Molecule Inhibitors of Methyltransferases
# [1] = biological target: Glycine N-methyltransferase (Homo sapiens) (UniProt Q14749); conditions: purified enzyme, MTase-Glo SAH luminescence; measured here: GNMT inhibition; at 40 µM; stronger effect = lower value
# Method in brief: (§1)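 Each enzyme was assayed with SAM and its substrate. SAH formation detected by MTase-Glo luminescence; single-point 40 uM screen[…].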
# [2] = biological target: Guanidinoacetate N-methyltransferase (Homo sapiens) (UniProt Q14353); conditions: purified enzyme, MTase-Glo SAH luminescence; measured here: GAMT inhibition; at 40 µM; stronger effect = lower value
# Method in brief: as §1
# [3] = biological target: Histamine N-methyltransferase (Homo sapiens) (UniProt P50135); conditions: purified enzyme, MTase-Glo SAH luminescence; measured here: HNMT inhibition; at 40 µM; stronger effect = lower value
# Method in brief: as §1
# [4] = biological target: Nicotinamide N-methyltransferase (Homo sapiens) (UniProt P40261); conditions: purified enzyme, MTase-Glo SAH luminescence; measured here: NNMT inhibition; at 40 µM; stronger effect = lower value
# Method in brief: as §1
# [5] = biological target: Phenylethanolamine N-methyltransferase (Homo sapiens) (UniProt P11086); conditions: purified enzyme, MTase-Glo SAH luminescence; measured here: PNMT inhibition; at 40 µM; stronger effect = lower value
# Method in brief: as §1
# % is scaled to controls: 0 for no effect and ±100 for the full control effect.
Structure (SMILES),"activity change, negative = inhibition [1] [%]","activity change, negative = inhibition [2] [%]","activity change, negative = inhibition [3] [%]","activity change, negative = inhibition [4] [%]","activity change, negative = inhibition [5] [%]"
NC[C@H]1O[C@@H](n2cnc3c(N)ncnc32)[C@H](O)[C@@H]1O,-65.7,-65.6,-66.7,-62.7,-73.4
Cn1c(CNc2cccc(C(=O)NCc3ccccc3C(F)(F)F)c2)nnc1-c1ccncc1,–,-0.317,–,-13,2.82
C=CCC1=C[C@]2(OC)[C@H](C)[C@@H](c3ccc4c(c3)OCO4)O[C@]2(OC)CC1=O,2.29,-1.91,5.98,-14.6,-4.35
CC1CCCCC1NC(=O)C1(C)Cn2c(cc3sccc32)C(=O)N1Cc1cccc(F)c1 (stereo not drawn),1.45,0,-0.579,-3.02,-4.09
Cc1cn2c(-c3cn[nH]c3)cnc2c(Nc2ccc(C(=O)N3CCNCC3)cc2F)n1,36.6,-3.4,-24.1,-13.2,-7.57
CCN1C(=O)c2cc3ccccc3n2CC1(C)C(=O)NCC(=O)NCCc1ccccc1C (stereo not drawn),-3.37,0,4.86,-3.11,-2.57
CCOC(=O)COc1ccc2c(-c3ccccc3)cc(=O)oc2c1C,-6.03,3.05,2.36,-14.2,-20.8
COc1ccccc1-c1noc(CCC(=O)N2CCC(Cc3noc(C)n3)CC2)n1,-1.64,-2.14,-2.52,-3.62,4.54
COC[C@@H]1CN(Cc2ccco2)C[C@H]1C(=O)N(C)C,0.838,0.894,2.65,0.745,-4.43
CCOc1ccc(CN2C(=O)c3cc4occc4n3CC2(C)C(=O)NC2CCCCCCC2)cc1 (stereo not drawn),0.111,0,2.09,-4.53,-1.7
C=C1CCC2C(C)(C)C(O)CCC2(C)C1CCC(C)CCOC(=O)CCC(=O)O (stereo not drawn),0.075,4.24,8.39,-15.9,-3.05
C=CC1C(O[C@@H]2O[C@H](CO)[C@@H](O)[C@H](O)[C@H]2O)OC=C(C(=O)OC)C1CC(=O)O (stereo partly drawn),2.79,1.68,9.7,-7.66,5.58
CCOC(=O)Cc1ccc(NC(=O)N2Cc3c(sc4c3CCCC4)-n3cccc3C2c2ccc(F)cc2)cc1 (stereo not drawn),-0.099,0,2.83,3.02,9.7
COc1c(/C=C/C(C)(C)O)ccc2c1C(=O)OCc1cc(C)cc(O)c1O2,0.374,1.11,9.4,-14.8,2.73
C=CC(C)(C)c1[nH]c2cc3c(cc2c1CC1NC(=O)C2=CCCN2C1=O)C=CC(C)(C)O3 (stereo not drawn),-2.55,-16.6,3.35,-30.1,-12.2
NS(=O)(=O)c1ccc(C(=O)N[C@H](c2cccs2)C2CC(O)C2)cc1 (stereo partly drawn),-2.22,-10.2,-0.436,-9.41,-4.2
C[C@@H]1O[C@@H](O[C@@H]2[C@@H](O)[C@H](O[C@@H]3[C@@H](O)[C@@H](O)[C@H](O[C@H]4[C@H](OC(=O)[C@]56CCC(C)(C)C[C@H]5C5=CCC7[C@@]8(C)C[C@H](O)[C@H](O[C@@H]9O[C@H](C(=O)O)[C@@H](O)[C@H](O)[C@H]9O)[C@@](C)(CO)C8[C@H](O)C[C@@]7(C)[C@]5(C)C[C@H]6O)O[C@@H](CO)[C@@H]4O)O[C@H]3C)OC[C@H]2O)[C@H](O)[C@H](O)[C@H]1O (stereo partly drawn),0,7.15,10,-6.7,8.97
CCCC1c2ccc(C)n2CCN1C(=O)Nc1cc(OC)cc(OC)c1 (stereo not drawn),-2.46,0,-8.15,0.934,-5.21
CC(=O)N1CCOc2ccc(CCC(=O)N3CCN(C4CCCCC4)CC3)cc2C1,-3.25,-2.47,-3.31,-6.04,21.1

Structure (SMILES),"activity change, negative = inhibition [1] [%]","activity change, negative = inhibition [2] [%]","activity change, negative = inhibition [3] [%]","activity change, negative = inhibition [4] [%]","activity change, negative = inhibition [5] [%]"
CC(C)Cn1c(=O)c2ccc(C(=O)NC(C)C)cc2n2c(=O)n(Cc3ccc(N4CCCC4=O)cc3)nc12,-0.815,1.38,-2,-4.78,-1.82
C=C(C)[C@@H]1CC[C@]2(C(=O)O)CC[C@]3(C)C(CCC4[C@]5(C)C(CC[C@]43C)C(C)(C)[C@@H](O)[C@@H]5C(=O)O)C12 (stereo partly drawn),3.32,4.24,11.6,-9.22,1.49
C=CCNc1nc(C)nc2c1CCN(C(=O)Cc1nnc(N)s1)CC2,-5.49,-4.66,-3.33,-4.4,-0.195
CC1CC(=O)C2=C(C1)C1OC1C1(O)C2C(=O)c2cccc(O)c2C1O (stereo not drawn),-2.26,-1.43,5.72,-12.1,0.203
Cc1cc(S(=O)(=O)N[C@@H]2CCOC[C@H]2Oc2ccccn2)c(C)s1,-2.8,-1.01,-0.953,-6.64,3.74
CCN1c2cc(C(=O)NCc3cccc(OC)c3)ccc2C(=O)N2CCCCCC21 (stereo not drawn),-5.64,-6.22,-6.51,-10.2,-4.16
COC[C@H]1C[C@@H](NC(=O)Nc2cccnc2)[C@H](O)[C@@H]1O,-4.66,-3.52,-17.5,-16.1,-9.56
Cn1c(=O)c2ccc(C(=O)NC3CCCC3)cc2n2c(SCc3ccc(F)cc3)nnc12,-10.1,-0.914,0.466,-4.87,-2.94
O=[S+]([O-])(c1cccs1)N1CCCC2(CC(c3ccccc3)=NO2)C1 (stereo not drawn),-12.4,-5.99,-1.29,-19.1,-12
Cc1ccc(OC[C@H](O)[C@H](C)NC(C)C)c2c1CCC2,-3.31,-3.2,0.073,-12.3,1.65
Cc1ccccc1CN1C(=O)c2ccc(-c3ccccc3)n2CC1(C)C(=O)NC1CCCC1 (stereo not drawn),5.82,0,5.69,5.75,6.4
COc1ccc(CN2C(=O)c3ccc(-c4ccccc4)n3CC2(C)C(=O)NC2CCCC2)cc1OC (stereo not drawn),-1.16,0.128,3.11,-5.34,0.763
CCCn1c(C)c(CC(=O)NCC2COCCO2)c2c1CC(C)(C)CC2=O (stereo not drawn),-0.852,0.518,2.76,0.489,-15.1
Cc1cccc(Cn2nc3n(Cc4ccc(F)cc4)c(=O)c4ccccc4n3c2=O)c1,0.93,0,3.75,4.92,0.859
CC(C)=CCC/C(C)=C/Cc1ccc(O)c(C2OC(=O)c3cc(C(=O)O)cc(O)c32)c1O (stereo not drawn),-1.81,-14.5,5.17,-30,-10.9
Cc1ccc(Cn2c(=O)c3ccccc3n3c(CCC(=O)Nc4cccc(Cl)c4)nnc23)cc1,-1.52,1.29,8.07,-0.365,0.273
CC(C)n1nc(C#Cc2ccccc2)c2c(N)ncnc21,-7.42,3.03,0.398,-29.5,-16.8
CC1(C(=O)NC2CCCCC2)Cn2nc(-c3cccs3)cc2C(=O)N1c1ccc(F)cc1 (stereo not drawn),3.59,0,7.76,3.85,4.95
CCC(C)NC(=O)c1ccc2c(=O)n(C)c3nnc(SCC(=O)c4cc(C)ccc4C)n3c2c1 (stereo not drawn),6.59,0.249,6.97,7.39,4.49

Structure (SMILES),"activity change, negative = inhibition [1] [%]","activity change, negative = inhibition [2] [%]","activity change, negative = inhibition [3] [%]","activity change, negative = inhibition [4] [%]","activity change, negative = inhibition [5] [%]"
CC(C)Cn1c(=O)n(CC(C)N2CCCC2)c2cc(C(=O)O)cnc21 (stereo not drawn),-4.04,-7.07,-2.44,-9.31,-7.41
Cc1ccc(CN2C(=O)c3cc4sccc4n3CC2(C)C(=O)NC2CCCCCCC2)cc1 (stereo not drawn),1.31,4.65,6.02,-1.54,3.14
O=C(CCc1nnc2n(CCc3ccccc3)c(=O)c3ccccc3n12)N1CCN(c2ccccc2F)CC1,-2.48,0.225,2.24,-29.9,0.752
CCCn1c(=O)c2ccc(C(=O)NC(C)C)cc2n2c(=O)n(Cc3cccc(Cl)c3)nc12,2.19,0.337,8.11,-2.33,4.86
N#Cc1cc(C2=Nc3ccc(Br)cc3NC(=O)C2)ccn1,-40.7,-3.76,2.78,-20.3,-4.59
CC(C)c1cc2n(n1)CC(C)(C(=O)NC1CCCCCC1)N(c1ccc(Cl)cc1)C2=O (stereo not drawn),-0.165,0.015,4.94,2.4,-0.615
CC(N)=O,4.03,-7.7,7.6,-10,-3.56
CCOc1ccc(C(=O)Cn2nc3n(C(C)C)c(=O)c4ccc(C(=O)NC(C)C)cc4n3c2=O)cc1,-1.07,4.78,2.6,2.69,2.18
Cc1ccc(N2C(=O)c3cc(-c4cccs4)nn3CC2(C)C(=O)NC2CCCCC2)cc1C (stereo not drawn),5.62,3.01,9.51,5.77,3.99
O=C1NC(=NC2CCCCC2)C2(CCCN([S+](=O)([O-])c3cccc(C(F)(F)F)c3)C2)N1c1cc(F)cc(F)c1 (stereo not drawn),-4.41,-2.59,-0.701,-13,-2.04
O=C(CCc1nnc2n(CCc3ccccc3)c(=O)c3ccccc3n12)NCCc1ccc(Cl)cc1,-5.25,-0.296,0.715,3.11,-5.76
COc1ccc2cc3n(c2c1)CC(C)(C(=O)NCC1CCCO1)N(Cc1cccc(Cl)c1)C3=O (stereo not drawn),2.95,0.557,3.8,9.86,1.63
COc1ccc(C(=O)N[C@@H]2CCOC[C@H]2Oc2ccccn2)c(F)c1F,-0.912,-3.03,-0.709,-4.33,-2.13
CC1(C(=O)NCc2ccc(Cl)cc2)Cn2c(ccc2-c2ccco2)C(=O)N1CCc1cccs1 (stereo not drawn),-19.4,-14,-8.04,-19.2,-10.2
CCc1c(CC(N)=O)c2cc(OCCCP(=O)(O)O)ccc2n1Cc1ccccc1,1.49,5.34,11.1,-9.91,3.4
CC1=NS(=O)(=O)N(C)C=C1C(=O)OCc1nc(C)no1,-0.802,-0.587,1.14,-3.1,-5.19
Cc1ccc(NC(=O)CCc2nnc3n(Cc4ccccc4Cl)c(=O)c4ccccc4n23)cc1C,3.75,-2.24,-1.94,4.46,-7.96
COCCCNC(=O)Cn1c(=O)oc2cc(S(=O)(=O)N3CC(C)CC(C)C3)ccc21 (stereo not drawn),-1.76,0,8.76,17.6,-0.092
COc1cccc(CNc2nc3c(-c4ccc(Cl)cc4)nnn3c3ccccc23)c1,-3.42,3.65,-4.9,1.63,-4.07
